# Source: the supplement of paper PMC3334620
# Whole data set: some 33,000 sequences, median “E-score (-0.5 to 0.5)” near -0.054, cut for the highest 2% near 0.35. The list shows a part of the results.
# Biological target: T1, Stb5 (UniProt P38699)
# T1 sequence: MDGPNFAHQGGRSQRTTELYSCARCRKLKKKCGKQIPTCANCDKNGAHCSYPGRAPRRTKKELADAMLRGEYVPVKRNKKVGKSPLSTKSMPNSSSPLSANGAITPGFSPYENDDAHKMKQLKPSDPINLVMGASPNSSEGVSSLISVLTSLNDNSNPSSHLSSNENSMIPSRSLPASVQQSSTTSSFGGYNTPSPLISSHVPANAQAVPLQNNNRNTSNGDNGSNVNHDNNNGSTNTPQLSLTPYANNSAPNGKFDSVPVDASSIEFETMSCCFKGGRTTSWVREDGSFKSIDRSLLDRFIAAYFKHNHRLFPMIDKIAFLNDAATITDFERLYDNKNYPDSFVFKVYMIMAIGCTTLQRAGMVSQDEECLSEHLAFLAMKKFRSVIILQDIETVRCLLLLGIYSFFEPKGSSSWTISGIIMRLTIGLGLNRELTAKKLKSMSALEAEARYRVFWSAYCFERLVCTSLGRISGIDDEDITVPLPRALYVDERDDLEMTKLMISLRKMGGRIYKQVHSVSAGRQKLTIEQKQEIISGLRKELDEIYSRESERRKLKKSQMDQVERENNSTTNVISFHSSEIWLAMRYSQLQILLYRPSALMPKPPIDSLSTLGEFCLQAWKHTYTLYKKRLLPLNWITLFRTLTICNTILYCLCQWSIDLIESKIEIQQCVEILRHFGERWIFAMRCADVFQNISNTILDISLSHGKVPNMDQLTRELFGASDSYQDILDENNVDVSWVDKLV
# Experiment: PBM E-score (8-mer binding enrichment) (E-score (-0.5 to 0.5)); higher = stronger / more preferred TF binding; most listed sequences are background and not binding sites
# Settings: protein concentration: 200 nM; construct: GST-full length
# In short: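 PURExpress in vitro transcription/translation supplied GST-tagged yeast transcription factors, either full-length or DNA-binding domain. Applied at about 100-200 nM to universal all-10-mer Agilent arrays double-stranded by primer extension, the bound protein was detected with fluorescent anti-GST. E-scores, modified Wilcoxon-Mann-Whitney statistics, were given by the Universal PBM Analysis Suite to ungapped eight-base words pooled with their reverse complements after masliner normalisation.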
row,Sequence,PBM E-score
1,GGGAAAAC,0.113
2,GACTGTCC,0.00266
3,CAAGCTTA,0.0928
4,GCCGGCCC,0.241
5,CAATCAGG,-0.124
6,TATGACAA,-0.104
7,CGTAAGTC,0.0376
8,ACCATTCG,-0.101
9,ATTGCAAA,-0.0132
10,ACCTACCT,0.106
11,ATGACGCC,0.229
12,AAATATGA,-0.0569
13,ATCGAACG,-0.0952
14,ACATCTGC,-0.183
15,CTGAGGAC,0.0844
16,GGTGTCGA,-0.0848
17,TTGTTAAA,0.106
18,CATAATCC,0.0435
19,AGAACAGG,-0.105
20,GCGCAGTA,-0.078
21,ACTACGTC,-0.0346
22,GATCGTCC,0.0239
23,ATATCTTC,-0.00676
24,GAATGGGA,-0.182
25,CTTGCCCC,-0.0462

row,Sequence,PBM E-score
1,CCGAATTA,0.142
2,CACGGTTC,-0.25
3,AAGCACCC,-0.117
4,ACAACGCG,-0.0497
5,CGATCCTA,0.158
6,AGGGAACC,-0.0168
7,GAGCTCGC,-0.0819
8,GAGTGTAA,-0.257
9,AAGGAAAA,-0.196
10,CCAGTATC,-0.132
11,AGGGCAAT,-0.117
12,AAGGCGGC,0.151
13,CCAATCAA,-0.0742
14,AGGGTAAA,-0.199
15,AACATATG,-0.0158
16,ACATAGTA,-0.0424
17,AACTTAAT,-0.00794
18,CCTTGAGA,0.0734
19,CTATGCGA,-0.179
20,CATGACCA,-0.378
21,ATAATCAT,-0.0972
22,ACCAGATC,-0.153
23,GGCTAGCA,0.109
24,CCCGTGCG,0.188
25,GCCACTTA,-0.0133

row,Sequence,PBM E-score
1,ATCTATTG,-0.0544
2,TACGACTA,-0.0994
3,GGGAATGA,-0.0101
4,GAGGTGCC,-0.0435
5,AGACGCGG,0.159
6,CCCCACTA,-0.079
7,CAGCATAC,-0.0788
8,CAGAGCTC,-0.0323
9,GCACCAAC,0.0435
10,GCGCGACA,0.00575
11,GAGTTACC,-0.0338
12,ACGGTTCA,-0.187
13,AGAGATCT,-0.187
14,AGGCACAA,-0.13
15,GAACCGTC,0.0721
16,ACGGGCTC,0.196
17,AAGCTGCA,-0.00205
18,AAGCCTCT,-0.318
19,AAGGTGAG,-0.185
20,CAAATTGA,-0.259
21,TACGAACA,-0.0597
22,CAACCTCA,-0.309
23,CTACTGCC,0.00476
24,GCCCTTGA,-0.284
25,CGGAAGAA,0.093

row,Sequence,PBM E-score
1,TAGATGAA,0.0599
2,CCCGCAAC,0.266
3,AAAAACTG,-0.0746
4,GAGGCTAA,-0.0247
5,CGGCAGGA,0.134
6,CGGTGGCC,0.157
7,ACGCTAGT,0.156
8,ACTGAGTG,-0.137
9,GAAGTGTC,-0.0684
10,AGGTTTCA,0.058
11,ACTAAGCA,-0.244
12,CCTGCTGC,-0.209
13,AATCACTC,-0.228
14,CATTCTAA,-0.228
15,ATCAGAGA,-0.172
16,ACGCACCA,-0.0108
17,TACTATCA,-0.0737
18,GTTTCGCA,-0.0435
19,CATATACC,0.137
20,GGGGCAGA,0.0569
21,ACCCGCGT,0.0669
22,CGATAGTA,0.114
23,CTGTTTGC,-0.278
24,CTACATGA,-0.039
25,CGATTGAA,0.0538

row,Sequence,PBM E-score
1,TAGCGCGA,-0.112
2,AGGCCACG,-0.104
3,AGCGTTAA,0.0928
4,ACGTGTTA,-0.183
5,AGATAGCA,-0.115
6,AGAAGGAA,0.0725
7,ATTGTTCA,-0.107
8,GACTTTAC,0.0729
9,CTAGGCGA,-0.0634
10,ACGGGAAC,0.205
11,ACCGAGAG,0.0364
12,AACGGACC,0.38
13,GCCGCTTA,0.258
14,CCGAAGAG,0.0938
15,GGGCGTGA,-0.171
16,TATACAAA,-0.0515
17,GTCGACAA,-0.0265
18,ACAAGTTC,-0.115
19,AGCTGTCG,-0.11
20,CCAATGAG,-0.201
21,CTGACGGC,0.157
22,AATTACGC,-0.194
23,AGGCAAAA,-0.0993
24,ATCACAGA,-0.0214
25,AGCCAGAT,-0.126

row,Sequence,PBM E-score
1,GGAACTAA,0.373
2,GCCACGAA,0.0246
3,ATACTTTC,-0.0748
4,ACTCTGTC,-0.117
5,GTCAGCAC,-0.045
6,CTTGATAA,0.00634
7,CGCTCGCA,0.0692
8,AAAACAGA,-0.186
9,ATATGTCC,0.406
10,ACCCCCAT,-0.27
11,CGTGGGAG,0.0265
12,CCGAACCC,0.111
13,CTTCCTAA,-0.116
14,CCGCACTA,0.205
15,TAATCCAA,-0.117
16,CCCGAGTA,0.227
17,CCCCAAAC,-0.226
18,ACTCGAAG,-0.0168
19,CCCTCTCA,-0.284
20,GAGTTGCC,0.0794
21,ACCCTTGA,-0.0281
22,ACAGTGTA,-0.314
23,ACAATGCG,-0.0154
24,AGTTGCGA,-0.222
25,ACCTGCAG,-0.343

row,Sequence,PBM E-score
1,AACTGTCA,-0.249
2,AGCTAGTC,-0.0527
3,CATCTCGC,0.0525
4,CCCTCGAG,-0.339
5,CCTATGAG,-0.324
6,AAGACGTC,-0.271
7,AAAAACGC,0.118
8,AGATGACG,-0.226
9,AGAGCGAC,-0.0175
10,GCCCTAGC,-0.0132
11,CATATTTA,0.0934
12,CCGCGGTC,0.32
13,GCGGTCAA,0.241
14,AAGATAAT,-0.0346
15,GTCTAGCA,0.0804
16,TTTGCAAA,-0.154
17,TCACGTCA,-0.0784
18,GAAGTGCA,-0.201
19,AGTGGGGC,-0.219
20,TAAAGTGA,-0.0387
21,ACTCCAAG,-0.0735
22,ACGGTAAA,0.142
